According to ChEMBL document CHEMBL4888484, “Replenishing the malaria drug discovery pipeline: Screening and hit evaluation of the MMV Hit Generation Library 1 (HGL1) against asexual blood stage Plasmodium falciparum ,using a nano luciferase reporter read-out” (2022):
Hit rate of the full screen: of about 150,000 compounds, about 540 (0.36%) showed an effect of 50% or more. The list shows a part of the results.

test system: Plasmodium falciparum; assay: Primary screen in NF54 nanoGlo assay, in single point, at 2uM, 72h; a lower Z score goes with more inhibition; type: functional, Erythrocyte; details: timepoint 72 hour

Structure (SMILES) | % Inhibition | Z score
Cc1ccc(C(=O)NCc2ccc(Cn3cccn3)cc2)c(=O)[nH]1 | -18% | 2.87
O=C(NC[C@H]1CCN(C/C=C/c2ccccc2)C1)c1cccc(O)c1 | -4% | 0.89
CC(=O)N1CCC[C@H](N(CCN(C)C(=O)c2ccc(F)cc2F)C2CCOCC2)C1 | 1% | -0.13
COc1ccc(Cl)cc1-c1ncc(C)c(N(C)C)n1 | -8% | 1.25
Cc1nc(CCn2cc(C[C@H](C)c3ccccc3)nn2)no1 | 4% | -0.48
Cc1ccc(N2N=C(C(=O)O)S(=O)(=O)c3cc(F)ccc32)cc1 | -7% | 0.78
Cc1ccccc1NC(=O)Nc1ccc(N2CCN(C(=O)C3c4ccccc4Oc4ccccc43)CC2)cc1 | 3% | -0.48
Cc1ccc(S(=O)(=O)N2CCN(C(=O)CN3CCOCC3)CC2)c(Cl)c1 | -5% | 0.93
O=C(c1n[nH]c2ccccc12)N1C[C@@H]2CC[C@H]1CN(C1CCOCC1)C2 | -4% | 0.63
CO[C@H]1CCN(C(=O)c2cnc3ccccc3n2)CC1(C)C | -2% | 0.33
N[C@H]1CCOc2ccc(Br)cc2C1=O | -8% | 1.05
CO[C@@]12CC[C@H](O)C[C@@H]1N(Cc1cnc(-c3ccccc3C)s1)CC2 | -12% | 1.56
O=C(NCc1ccccc1)N1CCc2nc(N3CCCCC3)nc(Oc3cccc(F)c3)c2C1 | 2% | -0.35
CN(CC1CCOC1)C(=O)NC(c1ccc(F)cc1)c1ccccn1 (stereo not given) | 5% | -0.46
CCc1ccc(C(=O)NCCNc2cnccn2)o1 | -16% | 1.55
O=S1(=O)CCCN(CCOc2cc(Cl)cc(Cl)c2)CC1 | 4% | -0.36
CCOC1CC1C(=O)NC1(C#N)CCC(C(C)(C)C)CC1 (stereo not given) | -12% | 2
CCc1ccccc1NC(=O)Cn1nc2c3sc(N(C)C)nc3ncn2c1=O | -14% | 1.37
NC(=O)C1(NCC(=O)NC2CCCCCCC2)CCCCC1 | -3% | 0.57
CN(C(=O)c1ccc2c(c1)OCO2)[C@H]1COC[C@@H]1O | -2% | 0.47
Cc1ccc(-c2nc(C#N)c(N(Cc3ccc(F)cc3)Cc3ccco3)o2)cc1 | -18% | 2.25
CN(C)c1cnc(C(=O)N[C@H]2CCCc3cn[nH]c32)cn1 | -41% | 4.81

Structure (SMILES) | % Inhibition | Z score
O=C(Cc1c[nH]c2ccccc12)NC(c1ccccn1)[C@H]1C[C@@H](O)C1 (stereo not given in full) | 0% | 0.07
CCOc1ncc(NC(=O)Cc2ccc(Cl)cc2)c(OCC)n1 | -10% | 1.9
Cc1ccccc1NC(=O)Cn1ccnc1-c1ccc(-c2cc[nH]n2)s1 | -13% | 1.31
CC(C)C(=O)NCCN(C)C(=O)c1c(F)cc(F)cc1F | -7% | 1.01
Cc1ccc2nc(-c3cccc(Cl)c3)c(NC(=O)C3CCC3)n2c1 | 2% | -0.31
C[C@@H](CCC1CCCC1)NC(=O)NCc1ccon1 | -6% | 0.94
c1ccc(-c2nn(-c3ccccc3)c3ccccc23)cc1 | -14% | 1.59
Cc1cccc(CN2CCC(=O)N(CC3CCCCC3)CC2)n1 | -8% | 1.13
c1ccc(CN2CCC(NC3CC4CCC3C4)CC2)cc1 (stereo not given) | 1% | -0.2
C=C(C)CN1C[C@@H](O)Cc2ccccc21 | -8% | 0.67
CN(Cc1cnc2ccccc2c1)c1cnn(C)c1 | 1% | -0.16
COC(=O)[C@H](C)N1CCC(C(F)(F)F)CC1 | -10% | 0.96
C[C@@H](CN)CNC(=O)Cc1ccc(Cl)cc1Br | -12% | 1.64
Cc1nnc(CN(Cc2nnnn2C2CC2)C(C)(C)C)o1 | 7% | -1.17
O=C(CN1C(c2ccc(Cl)cc2)=C[C@@H](c2ccccc2)n2nnnc21)N1CCN(c2ccccc2)CC1 | -3% | 0.32
CCO[C@H]1CN(Cc2nc(-c3ccccc3)cs2)C[C@@H]1O | -14% | 2.64
CC1CCC(N(C)Cc2nnnn2C(C)C)CC1 (stereo not given) | -1% | 0.08
C[C@@H](CNC(=O)Nc1nc(CS(C)(=O)=O)no1)c1ccc(F)cc1F | -2% | 0.45
Cc1nnc(-c2cc(NC(=O)Cc3c[nH]c4ccccc34)c(C)s2)o1 | -13% | 1.26
CCc1ccc(NC(=O)N2CCC[C@H](OC3CCC3)C2)cc1OC | 6% | -0.56
O=C(NCc1cccs1)C1CCCC1 | -3% | 0.29
O=C(Cn1nc2c3ccc(F)cc3ncn2c1=O)Nc1ccc(F)c(Cl)c1 | -2% | 0.35

Structure (SMILES) | % Inhibition | Z score
CCOc1ccc([C@H](C)NS(=O)(=O)c2ccc(-c3nc(CC)cs3)s2)cc1 | -1% | 0.11
OCCn1ccc([C@H]2CCCN(Cc3ccc4c(c3)OCCO4)C2)n1 | -19% | 1.71
Cc1nc(CN2CCN(C)C(=O)[C@@H]2C)n(C)c1C | -15% | 1.74
O=C(c1cc(C(F)(F)F)n[nH]1)N1CC[C@H](c2ccc(F)cc2)[C@@H](O)C1 | -7% | 0.92
CC(C)(C)N(CC(=O)N1CCn2cccc2[C@@H]1c1ccoc1)C(=O)c1ccccc1Cl | -11% | 1.53
CN1C(=O)CO[C@H](c2nc(-c3ccco3)no2)[C@H]1c1cccnc1 | -7% | 1
O=C(O)c1ccc2c(c1)n(CCN1CCCCC1)c(=O)n2CCc1ccccc1 | 5% | -0.74
CCN(C(=O)Nc1cc(OC)ccc1OC)[C@@H](C)CS(C)(=O)=O | -1% | 0.09
Cc1nn(C(C)(C)C)cc1C(C)NC(=O)N1CCCC(O)C1 (stereo not given) | 0% | 0
O=C(NCCN1CC[C@H](N2CCOCC2)C1=O)c1ccoc1 | -1% | 0.16
CCCn1cc(C(=O)N2CC[C@H](CC(=O)NC)C2)c(C)n1 | -3% | 0.55
CC1(C)[C@H]2CC=C(CCNc3nc(-c4ccncc4)nc4c3CNC4)[C@@H]1C2 | 0% | -0.03
N#C[C@@H](N)c1cccc(Br)c1 | -2% | 0.23
COc1ccnc(CN2CC3(CCCCC3)CC2=O)c1OC | -6% | 0.76
CC[C@@H](C(=O)N(CCO)Cc1nccn1C)n1cccn1 | 1% | -0.18
c1ccc(Nc2ncc(Cc3cccc4ccccc34)s2)nc1 | -8% | 1.11
COc1ccc(C(=O)NC[C@@]2(COc3cccnc3)C[C@@H](O)[C@@H](O)C2)cc1 | 24% | -2.82
Cc1n[nH]c([C@H]2CCN(Cc3ccccc3C#N)C[C@H]2N(C)C)n1 | -5% | 0.64
Cc1ccc(C2=Nc3ccccc3C(c3ccc(C)cc3)=Nc3ccccc32)cc1 | -5% | 0.5
O=C(NS(=O)(=O)CCCF)c1cnc([C@@H]2CCCO2)s1 | 0% | -0.04
COC[C@](C)(CNC(=O)c1ccc(Br)o1)OC | -15% | 2.94
CC1CCC(Oc2cc(CNS(=O)(=O)c3cnn(C)c3)ccn2)CC1 (stereo not given) | -6% | 0.6

Structure (SMILES) | % Inhibition | Z score
Cc1cc(S(=O)(=O)N2CC(Oc3cc(C)n(C4CC4)c(=O)c3)C2)ccc1F | -1% | 0.13
COC(=O)CCc1cncc(NC(=O)[C@@]2(N)COc3ccccc3C2)c1 | -10% | 1.09
Cn1ccc(NC(=O)N(CC(C)(C)O)C2CC2)n1 | -20% | 1.99
COc1ncc(CN2CCC(C(=O)O)(n3ccc(C(C)C)n3)CC2)cn1 | -7% | 0.67
CCc1cc(N2CCC[C@H]2c2noc(C)n2)ncn1 | -6% | 0.53
CCNC(=O)C[C@H]1COCCN1S(=O)(=O)c1cccc2nsnc12 | -4% | 0.57
CC(=O)N1CC[C@@]2(CO)CN(Cc3ccc(OC(F)(F)F)cc3)C[C@H]2C1 | -12% | 1.36
Cc1ncc(C(=O)N2CCCC[C@@H]2CCc2cccs2)s1 | -5% | 0.83
CN(CCNC(=O)c1ccncc1F)C(=O)c1ccncc1F | -4% | 0.61
COC[C@@H](C(N)=O)N(C)C(=O)c1cc2c(C)cccn2c1 | 4% | -0.77
COc1cc(N2CCC3(CCC(=O)N(CCc4ccccc4)C3)CC2)ncn1 | -3% | 0.53
CCN1CCN(C2(C(=O)N(C)Cc3nc(C)cs3)Cc3ccccc3C2)CC1 | -7% | 1.05
O=C(CCc1nnc(C2CCCC2)o1)NCC1CC1c1ccccc1 (stereo not given) | 2% | -0.3
O=C(c1csc2cccc(Cl)c12)N1CCn2c(nnc2C(F)(F)F)C1 | -10% | 1.35
Cc1n[nH]c2ncc(NC(=O)C3CCOCC3)cc12 | -6% | 0.64
CCOC[C@H](C)OC(=O)c1cnn(C)c1 | 12% | -2.15
Cc1ccc(F)c(N2CCC(NC(=O)C3(O)CCCC3)CC2)c1 | -11% | 1.26
C[C@H](NC(=O)c1cccc(C(F)(F)F)c1)c1nnc(N)s1 | -8% | 0.79
Cc1ccc([C@@H]2c3[nH]c4ccccc4c3CCN2S(=O)(=O)c2cnn(C(F)F)c2C)cc1 | -6% | 0.67
